Source: PubChem BioAssay AID328 (DTP/NCI, 2004)
Values joined by “and” are separate entries in the source; they are usually repeats but may differ in a detail not shown here. Equal values may be shown once. This continues a long series; more values of the same kind are listed elsewhere. Toxic doses and inconclusive results are not listed. Rule for the calls: active = survival T/C of 150% or more; inactive = T/C below 125% in these data.

Test system: BDF1 mice, P388 leukemia ip, median survival T/C
Experiment: NCI In Vivo Anticancer Drug Screen. Data for tumor model P388 Leukemia (intraperitoneal) in B6D2F1 (BDF1) mice
Details: endpoint: median survival time, higher = longer survival
Procedure, shortened: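 Transplantable tumour in mice; compound vs vehicle dosing; survival scored; ratio of treated to control reported.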

Measured: T/C

CC[C@]1(O)C[C@H]2CN(CCc3c([nH]c4ccccc34)[C@@](C(=O)OC)(c3cc4c(cc3OC)N(C=O)[C@H]3[C@@](O)(C(=O)OC)[C@H](OC(C)=O)[C@]5(CC)C=CCN6CC[C@]43[C@@H]65)C2)C1
active: dose: 0.06 mg/kg/injection, schedule: Q01DX009 (ip), vehicle: saline 220 % of control | dose: 0.06 mg/kg/injection, schedule: Q01DX010 (ip), vehicle: saline 190 % of control and 195 % of control (2×) | dose: 0.08 mg/kg/injection, schedule: Q01DX009 (ip), vehicle: clinical formulation 200 % of control | dose: 0.09 mg/kg/injection, schedule: Q01DX009 (ip), vehicle: saline 215 % of control | dose: 0.13 mg/kg/injection, schedule: Q01DX009 (ip), vehicle: saline 210 % of control | dose: 0.13 mg/kg/injection, schedule: Q01DX010 (ip), vehicle: saline 204 % of control and 209 % of control | dose: 0.14 mg/kg/injection, schedule: Q01DX009 (ip), vehicle: clinical formulation 213 % of control | dose: 0.14 mg/kg/injection, schedule: Q01DX009 (ip), vehicle: saline 222 % of control | dose: 0.22 mg/kg/injection, schedule: Q01DX009 (ip), vehicle: saline 200 % of control | dose: 0.24 mg/kg/injection, schedule: Q01DX009 (ip), vehicle: water 195 % of control | dose: 0.25 mg/kg/injection, schedule: Q04DX003 (ip), vehicle: saline 200 % of control | dose: 0.33 mg/kg/injection, schedule: Q01DX009 (ip), vehicle: saline 218 % of control | dose: 0.44 mg/kg/injection, schedule: Q04DX003 (ip), vehicle: saline 216 % of control | dose: 0.5 mg/kg/injection, schedule: Q04DX003 (ip), vehicle: saline 200 % of control and 210 % of control and 221 % of control | dose: 0.5 mg/kg/injection, schedule: Q04DX004 (ip), vehicle: saline 204 % of control | dose: 0.53 mg/kg/injection, schedule: Q04DX003 (ip), vehicle: clinical formulation 209 % of control | dose: 0.53 mg/kg/injection, schedule: Q04DX003 (ip), vehicle: saline 209 % of control | dose: 0.72 mg/kg/injection, schedule: Q04DX003 (ip), vehicle: saline 223 % of control | dose: 1.0 mg/kg/injection, schedule: Q01DX001 (ip), vehicle: saline 190 % of control | dose: 1.0 mg/kg/injection, schedule: Q04DX003 (ip), vehicle: water 186 % of control | dose: 1.65 mg/kg/injection, schedule: Q04DX003 (ip), vehicle: saline 197 % of control | dose: 2.0 mg/kg/injection, schedule: Q04DX003 (ip), vehicle: saline 215 % of control | dose: 15.6 micrograms/kg/injection, schedule: Q03HX024 (ip), vehicle: clinical formulation 200 % of control | dose: 31.2 micrograms/kg/injection, schedule: Q01DX009 (ip), vehicle: clinical formulation 190 % of control | dose: 31.2 micrograms/kg/injection, schedule: Q03HX016 (ip), vehicle: clinical formulation 204 % of control | dose: 31.2 micrograms/kg/injection, schedule: Q03HX024 (ip), vehicle: saline 205 % of control | dose: 62.0 micrograms/kg/injection, schedule: Q03HX008 (ip), vehicle: saline 210 % of control | dose: 62.5 micrograms/kg/injection, schedule: Q01DX009 (ip), vehicle: clinical formulation 200 % of control | dose: 62.5 micrograms/kg/injection, schedule: Q03HX008 (ip), vehicle: clinical formulation 195 % of control | dose: 62.5 micrograms/kg/injection, schedule: Q03HX024 (ip), vehicle: clinical formulation 204 % of control | dose: 75.0 micrograms/kg/injection, schedule: Q01DX009 (ip), vehicle: saline 195 % of control | dose: 125.0 micrograms/kg/injection, schedule: Q01DX009 (ip), vehicle: clinical formulation 214 % of control | dose: 125.0 micrograms/kg/injection, schedule: Q03HX008 (ip), vehicle: clinical formulation 200 % of control | dose: 125.0 micrograms/kg/injection, schedule: Q03HX008 (ip), vehicle: saline 205 % of control | dose: 125.0 micrograms/kg/injection, schedule: Q03HX024 (ip), vehicle: clinical formulation 223 % of control | dose: 150.0 micrograms/kg/injection, schedule: Q01DX009 (ip), vehicle: saline 210 % of control | dose: 250.0 micrograms/kg/injection, schedule: Q03HX008 (ip), vehicle: saline 220 % of control | dose: 250.0 micrograms/kg/injection, schedule: Q03HX016 (ip), vehicle: clinical formulation 219 % of control | dose: 250.0 micrograms/kg/injection, schedule: Q04DX003 (ip), vehicle: clinical formulation 200 % of control | dose: 250.0 micrograms/kg/injection, schedule: Q04DX003 (ip), vehicle: saline 192 % of control | dose: 300.0 micrograms/kg/injection, schedule: Q01DX009 (ip), vehicle: saline 220 % of control | dose: 324.0 micrograms/kg/injection, schedule: Q04DX003 (ip), vehicle: saline 198 % of control and 219 % of control | dose: 360.0 micrograms/kg/injection, schedule: Q04DX003 (ip), vehicle: saline 198 % of control and 213 % of control | dose: 389.0 micrograms/kg/injection, schedule: Q04DX003 (ip), vehicle: saline 216 % of control | dose: 432.0 micrograms/kg/injection, schedule: Q04DX003 (ip), vehicle: saline 189 % of control and 196 % of control | dose: 500.0 micrograms/kg/injection, schedule: Q03HX008 (ip), vehicle: saline 220 % of control | dose: 600.0 micrograms/kg/injection, schedule: Q04DX003 (ip), vehicle: saline 216 % of control | dose: 720.0 micrograms/kg/injection, schedule: Q04DX003 (ip), vehicle: saline 195 % of control | dose: 1000.0 micrograms/kg/injection, schedule: Q01DX001 (ip), vehicle: clinical formulation 223 % of control | dose: 1200.0 micrograms/kg/injection, schedule: Q04DX003 (ip), vehicle: saline 196 % of control | dose: 1670.0 micrograms/kg/injection, schedule: Q04DX003 (ip), vehicle: saline 213 % of control | dose: 2000.0 micrograms/kg/injection, schedule: Q01DX001 (ip), vehicle: clinical formulation 200 % of control
